Assay results: the supplement of paper PMC12217912
This is one part of the list. The full chains were built here from the parent and the listed change. Inactive controls read about 0.05.

B1: TEV protease; numbered along this chain (parent)
chain: MGESLFKGPRDYNPISSSICHLTNESDGHTTSLYGIGFGPFIITNKHLFRRNNGTLVVQSLHGVFKVKDTTTLQQHLVDGRDMIIIRMPKDFPPFPQKLKFREPQREERICLVTTNFQTKSMSSMVSDTSCTFPSGDGIFWKHWIQTKDGQCGSPLVSTRDGFIVGIHSASNFTNTNNYFTSVPKNFMELLTNQEAQQWVSGWRLNADSVLWGGHKVFMVKPEEPFQPVKEATQL

Variants of: B1
Assay: raw area under fraction-flipped curve 0-4 h after induction (AUC4h, not background-subtracted), DNA-recorder readout of cleavage of the substrate (dimensionless); higher = more cleavage of the substrate by the protease variant
Details: temperature: 34 °C; time window: 0-4 h after rhamnose induction
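Also: Bxb1 expression induced with 0.2% (w/v) L-rhamnose at OD600 near 0.5, cultures sampled hourly, flipped fraction per protease–substrate barcode pair counted by paired-end Illumina sequencing.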

Variant	area with substrate ENLYKQS	area with substrate ENLYNQS	area with substrate ENLYPQS	area with substrate ENLYQQS	area with substrate ENLYRQS	area with substrate ENLYWQS	area with substrate ENLYDQS	area with substrate ENLYHQS	area with substrate ENLYSQS	area with substrate ENLYVQS
T119F	0.0754	0.0694	0.0982	0.0657	0.0642	0.0783	–	–	–	–
Q234G	0.0581	0.0919	–	0.0578	–	–	0.0635	0.0577	0.0691	0.139
M83F	0.0764	0.0654	0.0727	–	–	0.0608	–	–	0.0598	–
Q194G	0.0553	–	0.0731	0.0756	0.0718	0.0682	0.0514	0.0677	0.0758	0.0947
G202K	–	–	–	–	–	0.0695	0.07	–	–	–
F95M	–	0.0749	–	–	–	0.0644	–	–	–	0.122
E223Q	–	–	–	0.0511	–	0.0966	0.0592	–	0.0773	0.0932
A207I	–	0.0588	0.0659	0.0618	0.0428	–	–	0.0716	–	–
A207C	–	0.103	0.0648	0.058	–	–	0.0601	0.0832	0.0795	–
T174L	0.109	–	0.111	0.0614	–	0.0845	–	0.0756	0.0689	0.0977
T174Y	0.0642	0.0687	–	0.0507	0.0786	–	0.0537	0.0917	0.0695	0.0983
V210Y	0.0623	0.0615	0.0781	0.0637	0.0859	–	0.0674	0.0761	0.0763	0.0953
H168S	0.0282	0.068	–	–	0.0699	–	0.0523	0.0479	0.0605	–
H168R	0.0668	0.0644	0.0493	0.0267	0.0462	0.0651	–	0.063	–	0.0624
G138R	0.0169	–	0.0611	–	0.0604	–	–	0.0756	–	–
Q198F	0.0536	0.0658	0.0713	0.0694	0.0649	0.0807	0.053	0.0678	0.0638	0.108
R106K	–	0.0685	–	–	–	0.111	–	0.116	–	–
G214C	–	–	–	–	–	0.105	0.0676	–	–	–
T159C	–	0.0712	–	–	–	–	–	–	–	–
S209P	0.0377	0.0828	0.0708	0.0552	–	–	–	0.0616	0.0649	0.121

Variant	area with substrate ENLYKQS	area with substrate ENLYNQS	area with substrate ENLYPQS	area with substrate ENLYQQS	area with substrate ENLYRQS	area with substrate ENLYWQS	area with substrate ENLYDQS	area with substrate ENLYHQS	area with substrate ENLYSQS	area with substrate ENLYVQS
S209I	–	–	0.0521	–	–	–	0.0633	–	–	–
V200K	–	0.0606	–	–	–	–	0.0904	–	–	–
V200Q	–	0.0748	–	–	–	0.0748	–	0.0822	–	–
V200G	–	–	0.0596	–	–	0.0457	–	0.0599	–	0.0852
G136A	0.0544	–	0.0579	0.061	–	0.0685	–	0.0643	–	0.125
K216T	0.0745	–	–	0.0572	–	0.0731	0.0641	0.0598	0.064	0.11
K216M	–	0.0492	0.0825	–	–	0.0784	0.0477	–	0.0765	0.121
T72E	–	–	–	0.0645	–	–	–	0.0599	–	–
N116C	0.057	0.0645	0.0669	–	0.0702	–	–	0.0649	–	–
E195Y	0.0599	–	0.0716	–	0.059	–	–	–	–	–
T115G	0.0531	0.0719	0.0646	–	–	–	–	0.0823	–	–
N177Y	–	0.0571	–	–	–	0.0491	0.0489	–	0.0527	0.0675
G35K	0.0472	–	–	0.0651	–	0.0466	–	–	–	–
G35E	–	0.0513	–	–	–	–	–	0.0476	0.0391	–
S32K	0.0851	0.0653	0.0772	–	–	0.0783	–	0.052	0.0917	0.0597
T192K	0.0734	0.0776	–	–	–	0.0728	0.0575	0.0658	–	0.0726
T192L	0.042	0.0703	–	0.0615	0.0575	–	0.0629	0.0706	0.081	0.069
K120T	–	0.0468	–	–	0.068	–	–	–	–	0.115
R160T	0.0489	–	–	–	–	0.0922	–	0.0674	–	0.106
R160F	0.0533	0.0723	0.0896	0.0729	0.0563	0.153	–	0.0726	–	0.15

Same assay, conditions: temperature: 34 °C; time window: 0-4 h after rhamnose induction

Variant	area with substrate ENLYYQS	area with substrate ENLYEQS	area with substrate ENLYMQS	area with substrate ENLYGQS	area with substrate ENLYIQS	area with substrate ENLYLQS	area with substrate ENLYTQS
Q234G	0.0732	–	–	–	–	–	–
M83F	–	0.0516	0.0712	–	–	–	–
Q194G	–	0.0732	0.0799	0.0452	0.123	–	–
G202K	–	0.0543	0.0632	–	0.0579	–	–
F95M	–	–	0.0703	–	–	–	–
E223Q	0.0875	0.0684	0.0868	–	–	–	–
A207I	–	0.0671	–	0.0741	0.0874	0.101	0.0866
A207C	0.0543	–	0.0858	0.0544	0.117	–	0.0807
T174L	–	0.0656	0.0629	–	–	–	–
T174Y	–	0.0707	–	–	0.0915	–	–
V210Y	0.0448	0.0658	0.0793	0.0734	0.11	0.0688	–
H168S	0.0746	0.0574	–	0.0612	–	–	–
H168R	0.0778	0.0678	0.0551	–	0.0685	0.0546	0.0623
G138R	0.0593	0.0591	0.0669	–	–	0.0651	–
Q198F	0.0671	0.0684	0.0768	0.0489	0.0815	0.0709	–
R106K	–	–	0.098	–	–	0.0679	–
G214C	–	–	–	0.0466	–	0.0663	–
T159C	–	0.0275	–	0.0598	–	–	–
S209P	–	0.0716	–	0.0668	0.0738	–	–
V200K	–	0.047	0.0835	–	–	–	0.0716

Variant	area with substrate ENLYYQS	area with substrate ENLYEQS	area with substrate ENLYMQS	area with substrate ENLYGQS	area with substrate ENLYIQS	area with substrate ENLYLQS	area with substrate ENLYTQS
V200Q	–	–	0.0843	–	–	–	0.0698
V200G	0.0566	–	0.0574	–	–	–	–
G136A	0.0628	0.068	–	0.0655	0.146	0.0754	0.0498
K216T	0.0495	0.0635	0.0718	–	0.0938	–	0.0676
K216M	0.0518	–	0.0925	0.0505	0.103	–	–
K216C	–	0.0677	–	0.0773	–	–	–
T72E	–	0.0806	–	–	–	0.0922	–
N116C	0.0641	0.0746	0.102	–	–	–	–
E195Y	0.0539	0.0531	–	0.0629	–	–	0.0856
T115G	–	0.0657	–	–	–	–	–
N177Y	–	–	0.0641	–	–	–	–
G35K	–	0.0437	–	–	–	–	–
G35E	0.0317	–	0.0333	–	0.0529	0.0471	–
S32K	–	0.0693	0.0912	–	0.105	–	–
T192K	0.0584	0.0658	0.0652	0.05	–	0.0684	–
T192L	0.068	0.0656	0.0751	0.0613	–	0.078	0.0715
K120T	–	–	–	–	0.111	0.0943	–
R160T	–	0.0454	0.0833	0.0766	0.163	–	–
R160F	0.0965	0.076	0.0912	0.0399	0.143	–	0.0855
